Test [1] has as its system ASPC-1 human pancreatic adenocarcinoma cells. In words: Orthotopic model of pancreatic cancer with ASPC-1 cells in athymic nude mice. The settings on record: orthotopic ASPC-1 model. Format: in vivo.
In test [2] the test system is BxPC-3 human pancreatic adenocarcinoma. The test can be described thus: Subcutaneously implanted BxPC-3 in athymic nude mice, single agent or combination chemotherapy (Example 4). Format: in vivo. Conditions: data obtained earlier with this xenograft model (not shown).

Here are results for one compound from USRE44681E1, “Compositions and methods for inhibiting growth of SMAD4-deficient cancers” (Biogen Idec MA Inc., priority 2006, dated 2013).

With `Nc1ccn([C@@H]2O[C@H](CO)[C@@H](O)C2(F)F)c(=O)n1` [gemcitabine], the tumor volume result in test [1] is given as “did not have a significant effect”. Besides, the “sensitivity of the BxPC-3 xenograft to the drug” value in test [2] is listed as “resistant”.
